In PMC9911399, “Two distinct binding modes provide the RNA-binding protein RbFox with extraordinary sequence specificity” one finds binding signal data, which are given here for 31 molecules.

Changes are numbered by the printed parent chain; changes in the protein carry UniProt numbers. Some of the results follow.

First the molecules themselves.
B1: UAUAGGC (DNA:RNA)
RNA: GGGAGACCGGAAUUCAGAUUGUCCUAUAGGCUUAAAUCCCGUCGUAGCCACCA
DNA 1: CAATCTGAATTCCGGTCTCCC
DNA 2: TGGTGGCTACGACGGGATT
B2: UUCCCGC (DNA:RNA)
RNA: B1 RNA with A26U, U27C, A28C, G29C
DNA 1: CAATCTGAATTCCGGTCTCCC
DNA 2: TGGTGGCTACGACGGGATT
B3: UCUAGUA (DNA:RNA)
RNA: B1 RNA with A26C, G30U, C31A
DNA 1: CAATCTGAATTCCGGTCTCCC
DNA 2: TGGTGGCTACGACGGGATT
B4: UACCAAU (DNA:RNA)
RNA: B1 RNA with U27C, A28C, G29A, G30A, C31U
DNA 1: CAATCTGAATTCCGGTCTCCC
DNA 2: TGGTGGCTACGACGGGATT
B5: CCGGCGG (DNA:RNA)
RNA: B1 RNA with U25C, A26C, U27G, A28G, G29C, C31G
DNA 1: CAATCTGAATTCCGGTCTCCC
DNA 2: TGGTGGCTACGACGGGATT
B6: GAGUAAU (DNA:RNA)
RNA: B1 RNA with U25G, U27G, A28U, G29A, G30A, C31U
DNA 1: CAATCTGAATTCCGGTCTCCC
DNA 2: TGGTGGCTACGACGGGATT
B7: UCUAAUG (DNA:RNA)
RNA: B1 RNA with A26C, G29A, G30U, C31G
DNA 1: CAATCTGAATTCCGGTCTCCC
DNA 2: TGGTGGCTACGACGGGATT
B8: CGAGCCG (DNA:RNA)
RNA: GGGAGACCGGAAUUCAGAUUGUCCCGAGCCGUUAAAUCCCGUCGUAGCCACCA
DNA 1: CAATCTGAATTCCGGTCTCCC
DNA 2: TGGTGGCTACGACGGGATT
B9: CUGAUUG (DNA:RNA)
RNA: B8 RNA with G26U, A27G, G28A, C29U, C30U
DNA 1: CAATCTGAATTCCGGTCTCCC
DNA 2: TGGTGGCTACGACGGGATT
B10: CUUCCGU (DNA:RNA)
RNA: B8 RNA with G26U, A27U, G28C, C30G, G31U
DNA 1: CAATCTGAATTCCGGTCTCCC
DNA 2: TGGTGGCTACGACGGGATT
B11: CUGCCCC (DNA:RNA)
RNA: B8 RNA with G26U, A27G, G28C, G31C
DNA 1: CAATCTGAATTCCGGTCTCCC
DNA 2: TGGTGGCTACGACGGGATT
B12: UGGAGGG (DNA:RNA)
RNA: B1 RNA with A26G, U27G, C31G
DNA 1: CAATCTGAATTCCGGTCTCCC
DNA 2: TGGTGGCTACGACGGGATT
B13: UUCAUCG (DNA:RNA)
RNA: B8 RNA with C25U, G26U, A27C, G28A, C29U
DNA 1: CAATCTGAATTCCGGTCTCCC
DNA 2: TGGTGGCTACGACGGGATT
B14: CCCUUUU (DNA:RNA)
RNA: B8 RNA with G26C, A27C, G28U, C29U, C30U, G31U
DNA 1: CAATCTGAATTCCGGTCTCCC
DNA 2: TGGTGGCTACGACGGGATT
B15: GAUGCAC (DNA:RNA)
RNA: B1 RNA with U25G, A28G, G29C, G30A
DNA 1: CAATCTGAATTCCGGTCTCCC
DNA 2: TGGTGGCTACGACGGGATT
B16: CAUACUC (DNA:RNA)
RNA: B1 RNA with U25C, G29C, G30U
DNA 1: CAATCTGAATTCCGGTCTCCC
DNA 2: TGGTGGCTACGACGGGATT
B17: CGUCGGG (DNA:RNA)
RNA: B8 RNA with A27U, G28C, C29G, C30G
DNA 1: CAATCTGAATTCCGGTCTCCC
DNA 2: TGGTGGCTACGACGGGATT
B18: CACACGC (DNA:RNA)
RNA: B1 RNA with U25C, U27C, G29C
DNA 1: CAATCTGAATTCCGGTCTCCC
DNA 2: TGGTGGCTACGACGGGATT
B19: GGUAGAG (DNA:RNA)
RNA: B1 RNA with U25G, A26G, G30A, C31G
DNA 1: CAATCTGAATTCCGGTCTCCC
DNA 2: TGGTGGCTACGACGGGATT
B20: AGGGGCC (DNA:RNA)
RNA: B8 RNA with C25A, A27G, C29G, G31C
DNA 1: CAATCTGAATTCCGGTCTCCC
DNA 2: TGGTGGCTACGACGGGATT
B21: CGACAAG (DNA:RNA)
RNA: B8 RNA with G28C, C29A, C30A
DNA 1: CAATCTGAATTCCGGTCTCCC
DNA 2: TGGTGGCTACGACGGGATT
B22: UUUCAGG (DNA:RNA)
RNA: B1 RNA with A26U, A28C, G29A, C31G
DNA 1: CAATCTGAATTCCGGTCTCCC
DNA 2: TGGTGGCTACGACGGGATT
B23: CAAUUGU (DNA:RNA)
RNA: B8 RNA with G26A, G28U, C29U, C30G, G31U
DNA 1: CAATCTGAATTCCGGTCTCCC
DNA 2: TGGTGGCTACGACGGGATT
B24: AAAUCUC (DNA:RNA)
RNA: B8 RNA with C25A, G26A, G28U, C30U, G31C
DNA 1: CAATCTGAATTCCGGTCTCCC
DNA 2: TGGTGGCTACGACGGGATT
B25: CUACUGA (DNA:RNA)
RNA: B8 RNA with G26U, G28C, C29U, C30G, G31A
DNA 1: CAATCTGAATTCCGGTCTCCC
DNA 2: TGGTGGCTACGACGGGATT
B26: GCCUGUA (DNA:RNA)
RNA: B1 RNA with U25G, A26C, U27C, A28U, G30U, C31A
DNA 1: CAATCTGAATTCCGGTCTCCC
DNA 2: TGGTGGCTACGACGGGATT
B27: UCGGACA (DNA:RNA)
RNA: B8 RNA with C25U, G26C, A27G, C29A, G31A
DNA 1: CAATCTGAATTCCGGTCTCCC
DNA 2: TGGTGGCTACGACGGGATT
B28: UGACAAG (DNA:RNA)
RNA: B8 RNA with C25U, G28C, C29A, C30A
DNA 1: CAATCTGAATTCCGGTCTCCC
DNA 2: TGGTGGCTACGACGGGATT
B29: GCACAGC (DNA:RNA)
RNA: B1 RNA with U25G, A26C, U27A, A28C, G29A
DNA 1: CAATCTGAATTCCGGTCTCCC
DNA 2: TGGTGGCTACGACGGGATT
B30: ACGGAGA (DNA:RNA)
RNA: B8 RNA with C25A, G26C, A27G, C29A, C30G, G31A
DNA 1: CAATCTGAATTCCGGTCTCCC
DNA 2: TGGTGGCTACGACGGGATT
B31: CUAUCAC (DNA:RNA)
RNA: B8 RNA with G26U, G28U, C30A, G31C
DNA 1: CAATCTGAATTCCGGTCTCCC
DNA 2: TGGTGGCTACGACGGGATT

The assay deals with T1, RBFOX1 RRM (Homo sapiens, UniProt Q9NWB1 109-208).
T1 sequence: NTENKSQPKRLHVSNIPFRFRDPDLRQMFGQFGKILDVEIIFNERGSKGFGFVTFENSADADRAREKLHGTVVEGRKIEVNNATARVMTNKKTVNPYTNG
Briefly: EMSA; HiTS-Eq, 1 nM pool, 10 min; buffer printed only for the single-RNA assays: 10 mM Tris pH 7.5, 150 mM NaCl, 3.4 mM EDTA, 0.001% NP-40, 30 C. The settings on record: tags: His6 N-terminal (pET28a); label: 5' 32P. In outline:
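Purified RbFox RRM, wild type or mutant, was incubated for 10 min in 50 µL with 1 nM of a 5′-radiolabelled RNA pool carrying 7 randomized nucleotides, whose flanks were annealed to DNA oligonucleotides, over a series of increasing protein concentrations. Unbound RNA was resolved on 8% native PAGE, cut out, reverse-transcribed, barcoded by PCR and sequenced on an Illumina HiSeq 2500. Relative association constants were derived from changes in read counts for each RNA species versus the control reaction and normalised to the cognate motif.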
(A gel shift assay detects complexes by their altered migration in electrophoresis.)
Take B1: the binding signal is 0.00986 KA relative to UGCAUGU.
In the case of B2, the binding signal was 0.0116 KA relative to UGCAUGU.
B3: the binding signal is 0.00831 KA relative to UGCAUGU.
In the case of B4, the binding signal is 0.000848 KA relative to UGCAUGU.
Turning to B5, the binding signal was 0.0143 KA relative to UGCAUGU.
As for B6, the binding signal was 0.00941 KA relative to UGCAUGU.
Then B7, with 0.0118 KA relative to UGCAUGU.
The result for B8 reads 0.00714 KA relative to UGCAUGU; that for B9, 0.0256 KA relative to UGCAUGU.
Take B10: the binding signal was 0.00587 KA relative to UGCAUGU.
As for B11, the binding signal is 0.00906 KA relative to UGCAUGU.
Turning to B12, the binding signal was 0.0152 KA relative to UGCAUGU.
Take B13: the binding signal was 0.00625 KA relative to UGCAUGU.
Regarding B14, the binding signal is 0.00372 KA relative to UGCAUGU.
Turning to B15, the binding signal is 0.0171 KA relative to UGCAUGU.
As to B16, the binding signal was 0.00303 KA relative to UGCAUGU.
In the case of B17, the binding signal is 0.00432 KA relative to UGCAUGU.
The result for B18 reads 0.00179 KA relative to UGCAUGU.
With B19, the binding signal was 0.0104 KA relative to UGCAUGU.
As to B20, the binding signal was 0.0237 KA relative to UGCAUGU.
Regarding B21, the binding signal was 0.00637 KA relative to UGCAUGU.
Then B22, with 0.00987 KA relative to UGCAUGU.
Take B23: the binding signal is 0.00723 KA relative to UGCAUGU.
Then B24, with 0.00195 KA relative to UGCAUGU.
As for B25, the binding signal was 0.0107 KA relative to UGCAUGU.
Take B26: the binding signal is 0.0203 KA relative to UGCAUGU.
The result for B27 reads 0.00225 KA relative to UGCAUGU; that for B28, 0.0143 KA relative to UGCAUGU; that for B29, 0.00984 KA relative to UGCAUGU.
As for B30, the binding signal is 0.00666 KA relative to UGCAUGU.
Turning to B31, the binding signal is 0.00478 KA relative to UGCAUGU.
